Reference: PubChem BioAssay (Tox21)
The shares of active, inactive and inconclusive entries below differ from those in the screen. A call without a number means that no potency is given here. For some of these results: Potencies beside an inconclusive call are fits to weak or partial responses and may not hold up. Activity calls are given as the source filed them. Unless noted, calls come from the whole dose curve; as a rule, active = well fitted curve in the direction sought with a large enough effect in the repeat runs; inconclusive = weak or mixed curves; inactive = no such curve, though single readings can be large; an effect the other way counts as inactive or inconclusive.

Legend:
[1] = qHTS assay for small molecule agonists of the antioxidant response element (ARE) signaling pathway - cell viability counter screen (AID 743203; calls by dose curve; note: nearly all actives have a fitted effect of over 55% in size; note: potency is the fitted concentration of half-maximal effect); conditions: ARE-bla HepG2 viability, CellTiter-Glo luminescence, 16 h; viability change, negative = cytotoxic: at 73.3 µM (top of the series)
How it was run: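 Cytotoxicity was tested in parallel with the ARE reporter screen. ARE-bla HepG2 cells were exposed to compounds for 16 hrs, and viability was taken from CellTiter-Glo luminescence.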

[2] = qHTS assay for small molecule activators of the heat shock response signaling pathway - cell viability counter screen (AID 743209); conditions: HSE-bla HeLa viability, CellTiter-Glo luminescence, 5 h; activity change, negative = cytotoxicity: at 62.6 µM (top of the series); note: nearly all actives have a fitted effect of over 50% in size; note: potency is the fitted concentration of half-maximal effect
How it was run: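 Cytotoxicity counter screen run in parallel with the HSE beta-lactamase reporter, using the same wells. HeLa HSE-bla cells received compound for 5 h at 37 C; ATP-based CellTiter-Glo luminescence was measured after 30 min at room temperature.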

[3] = qHTS RealTime-Glo MT Cell Viability Assay in HepG2 cells - 0 hour (AID 1224889); note: nearly all actives have a fitted effect of over 50% in size; note: potency is the fitted concentration of half-maximal effect
How it was run: (§1)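 Luminescence read-out: viable HepG2 cells reduce a prosubstrate to a NanoLuc substrate, giving a signal proportional to live cell number. Reads taken at 0, 8, 16, 24, 32 and 40 h of compound exposure at 37 C.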

[4] = qHTS assay to identify small molecule agonists of the hypoxia (HIF-1) signaling pathway - cell viability counter screen (AID 1224844; calls by dose curve; note: nearly all actives have a fitted effect of over 50% in size)
How it was run: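 Cytotoxicity was measured in parallel with the HRE-driven beta-lactamase readout: after 17 hrs of compound exposure at 37C, HRE-bla ME-180 cells received CellTiter-Glo and luminescence was recorded 30 min later.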

[5] = biological target: Glucocorticoid receptor (Homo sapiens) (UniProt P04150); assay: qHTS assay to identify small molecule agonists of the glucocorticoid receptor (GR) signaling pathway (AID 720691; active = well fitted activation curve with a large enough effect in the signal ratio in the repeat runs, not every such curve was filed as active; inconclusive = weak or mixed curves, or effect the other way; inactive = no such curve, though single readings can be large or run the other way; the % refers to the signal ratio); conditions: GR-bla HeLa, beta-lactamase reporter ratio, 18 h; activation: at 62.4 µM (top of the series) unless noted
Chain of UniProt P04150 (P04150 whole entry, looked up): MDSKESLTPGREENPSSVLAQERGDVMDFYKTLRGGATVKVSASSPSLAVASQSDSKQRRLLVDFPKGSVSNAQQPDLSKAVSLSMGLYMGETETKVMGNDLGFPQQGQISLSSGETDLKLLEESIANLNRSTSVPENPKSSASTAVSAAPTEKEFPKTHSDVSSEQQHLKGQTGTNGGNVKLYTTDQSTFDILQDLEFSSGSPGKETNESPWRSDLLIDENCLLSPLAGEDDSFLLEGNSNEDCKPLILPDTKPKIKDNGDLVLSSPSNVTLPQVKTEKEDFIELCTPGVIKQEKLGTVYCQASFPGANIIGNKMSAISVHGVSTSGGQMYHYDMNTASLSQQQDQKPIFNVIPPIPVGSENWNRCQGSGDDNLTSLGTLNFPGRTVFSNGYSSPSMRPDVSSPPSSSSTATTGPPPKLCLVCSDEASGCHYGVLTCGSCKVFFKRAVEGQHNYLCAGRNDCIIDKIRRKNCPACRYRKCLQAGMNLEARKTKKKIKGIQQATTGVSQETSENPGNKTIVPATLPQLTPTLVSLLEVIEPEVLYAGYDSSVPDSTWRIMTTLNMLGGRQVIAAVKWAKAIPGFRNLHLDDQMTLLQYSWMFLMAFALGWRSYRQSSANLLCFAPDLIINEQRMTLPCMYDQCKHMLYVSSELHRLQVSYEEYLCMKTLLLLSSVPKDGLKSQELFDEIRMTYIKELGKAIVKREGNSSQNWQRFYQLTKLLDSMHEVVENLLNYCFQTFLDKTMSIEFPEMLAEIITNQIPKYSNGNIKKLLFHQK
How it was run: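 Steps: seed GR-bla HeLa cells, incubate 4 h at 37 C/5% CO2; pin-transfer DMSO-dissolved compounds; incubate 18 h at 37 C; add LiveBLAzer B/G FRET substrate; after 2 h at room temperature, measure fluorescence.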

[6] = test system: thyroid hormone receptor (rat, GH3 cells); assay: qHTS assay to identify small molecule agonists of the thyroid receptor (TR) signaling pathway (AID 743066; calls by dose curve); conditions: GH3.TRE-Luc cells, TR agonist luciferase, 24 h; activation: at 83.9 µM (top of the series) unless noted
[7] = biological target: Estrogen receptor (Homo sapiens) (UniProt P03372); assay: qHTS assay to identify small molecule agonists of the estrogen receptor alpha (ER-alpha) signaling pathway (AID 743075; calls by dose curve;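 note: HEK293 GripTite cells with ER-alpha and UAS-driven beta-lactamase reporter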); conditions: HEK293 ER-alpha-UAS-bla, beta-lactamase FRET ratio, 18 h; activation: at 70.1 µM (top of the series) unless noted
Chain of UniProt P03372 (P03372 whole entry, looked up): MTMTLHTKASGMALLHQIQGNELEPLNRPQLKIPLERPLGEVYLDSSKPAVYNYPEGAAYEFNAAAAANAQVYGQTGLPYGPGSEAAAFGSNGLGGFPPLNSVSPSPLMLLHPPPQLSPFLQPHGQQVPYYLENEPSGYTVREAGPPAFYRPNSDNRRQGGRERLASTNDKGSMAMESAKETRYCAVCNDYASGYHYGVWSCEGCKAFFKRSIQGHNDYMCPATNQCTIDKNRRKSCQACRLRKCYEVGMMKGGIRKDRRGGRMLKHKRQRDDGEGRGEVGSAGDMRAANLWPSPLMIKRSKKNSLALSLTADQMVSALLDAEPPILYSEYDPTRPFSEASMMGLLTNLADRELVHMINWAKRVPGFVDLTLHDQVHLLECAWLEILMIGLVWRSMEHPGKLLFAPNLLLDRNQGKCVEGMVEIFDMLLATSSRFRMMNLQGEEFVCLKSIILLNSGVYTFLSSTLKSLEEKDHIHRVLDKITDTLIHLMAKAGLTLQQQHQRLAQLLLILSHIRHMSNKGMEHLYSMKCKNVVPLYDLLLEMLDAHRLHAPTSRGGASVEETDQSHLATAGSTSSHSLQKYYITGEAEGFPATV

[8] = qHTS assay to identify small molecule antagonists of the estrogen receptor beta (ER-beta) signaling pathway - cell viability counter screen (AID 1259382); note: nearly all actives have a fitted effect of over 55% in size; note: potency is the fitted concentration of half-maximal effect;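 for activity change, negative = cytotoxicity: HEK293T cells carrying ER-beta-UAS-bla reporter stimulated with estradiol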
How it was run: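 Cytotoxicity counter screen multiplexed with the beta-lactamase antagonist assay: GripTite HEK293T ER-beta-bla cells were treated 16 hr with test chemicals in the presence of 1nM 17-beta-estradiol, and viability was measured by CellTiter-Glo.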

[9] = qHTS assay to identify small molecule agonists of the constitutive androstane receptor (CAR) signaling pathway - cell viability counter screen (AID 1224836); note: nearly all actives have a fitted effect of over 45% in size; note: potency is the fitted concentration of half-maximal effect
How it was run: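 Multiplexed viability check: HepG2-CYP2B6-hCAR cells, 15-point compound dosing, 0.75 uM PK11195 final, 23 h at 37 C, CellTiter-Fluor fluorescence.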

[10] = qHTS assay to identify small molecule antagonists of the androgen receptor (AR) signaling pathway using the MDA cell line - cell viability counter screen (AID 743041; note: nearly all actives have a fitted effect of over 45% in size; note: potency is the fitted concentration of half-maximal effect); conditions: MDA-kb2 viability, CellTiter-Fluor, 16 h, cells co-treated with R1881 androgen agonist; viability change, negative = cytotoxic: at 70.3 µM (top of the series)
How it was run: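 Compound exposure lasted 16 h at 37C in MDA-kb2 AR-luc cells stimulated with R1881. Protease-based CellTiter-Fluor reagent was applied for the final 30 min and fluorescence measured.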

[11] = A CellTox Green Cytotoxicity Assay to monitor cytotoxicity in HEK293 cells - 24 hour (AID 1224875); note: nearly all actives have a fitted effect of over 45% in size; note: potency is the fitted concentration of half-maximal effect
How it was run: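 Cells (HEK293, 600/well) and dye reagent are dispensed together. After 5 h at 37 C, 23 nL compound is pinned in. Plates stay at 37 C for 40 h with fluorescence read at 0h, 8h, 16h, 24h, 32h and 40h.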

[12] = qHTS assay to identify small molecule agonists of the TGF-beta/Smad signaling pathway (AID 1346859; active = well fitted activation curve with a large enough effect in the signal ratio in the repeat runs, not every such curve was filed as active; inconclusive = weak or mixed curves; the % refers to the signal ratio; note: potency is the fitted concentration of half-maximal effect)
How it was run: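 Stable Smad binding element-beta-lactamase HEK 293T cells; 5 hr compound exposure at 37 C under 5% CO2; 2 hr room-temperature substrate step; fluorescence excited at 405 nm, collected at 460 nm and 530 nm.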

[13] = qHTS assay to identify small molecule antagonists of the TGF-beta/Smad signaling pathway - cell viability counter screen (AID 1346824); note: nearly all actives have a fitted effect of over 50% in size; note: potency is the fitted concentration of half-maximal effect
How it was run: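 SBE-bla HEK 293T cells, incubated overnight, then compound plus 0.25 ng/mL TGF-beta1 (stock added) for 5 hr at 37 C. Viability was read in the same wells by CellTiter-Glo luminescence after 30 min at room temperature.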

[14] = qHTS assay to identify small molecule antagonists of the retinoic acid receptor (RAR) signaling pathway (AID 1159552)
How it was run: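 Using a RARE-driven luciferase construct in C3RL4 cells, retinol at 1 uM final provided the agonist stimulus while compounds were co-applied. After 6 hours at 37 C, luminescence was recorded to flag inhibitors of retinol signaling.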

[15] = qHTS RealTime-Glo MT Cell Viability Assay in HepG2 cells - 24 hour (AID 1224867); note: nearly all actives have a fitted effect of over 50% in size; note: potency is the fitted concentration of half-maximal effect
How it was run: as §1

[16] = qHTS assay for small molecule activators of the heat shock response signaling pathway (AID 743210; active = well fitted activation curve with a large enough effect in the signal ratio in the repeat runs, with a control signal flat, not every such curve was filed as active; inconclusive = weak or mixed curves; the % refers to the signal ratio;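 note: HeLa cells with beta-lactamase reporter driven by heat shock elements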); conditions: HeLa HSE-bla reporter, beta-lactamase ratio, 5 h; activation: at 62.6 µM (top of the series) unless noted
How it was run: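 Following overnight attachment, HSE-bla HeLa cells received test compounds for 5 h at 37 C; beta-lactamase activity was then detected via FRET substrate fluorescence.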

[17] = biological target: Bile acid receptor (Homo sapiens) (UniProt Q96RI1); assay: qHTS assay to identify small molecule antagonists of the farnesoid-X-receptor (FXR) signaling pathway (AID 743217; active = well fitted inhibition curve with a large enough effect in the signal ratio in the repeat runs, not every such curve was filed as active; inconclusive = weak or mixed curves, or effect the other way; inactive = no such curve, though single readings can be large or run the other way; the % refers to the signal ratio; note: potency is the fitted concentration of half-maximal effect); conditions: HEK293T FXR-UAS-bla, beta-lactamase ratio, CDCA-stimulated, 16 h; activity change, negative = inhibition: at 62.6 µM (top of the series) unless noted
Chain of UniProt Q96RI1 (Q96RI1 whole entry, looked up): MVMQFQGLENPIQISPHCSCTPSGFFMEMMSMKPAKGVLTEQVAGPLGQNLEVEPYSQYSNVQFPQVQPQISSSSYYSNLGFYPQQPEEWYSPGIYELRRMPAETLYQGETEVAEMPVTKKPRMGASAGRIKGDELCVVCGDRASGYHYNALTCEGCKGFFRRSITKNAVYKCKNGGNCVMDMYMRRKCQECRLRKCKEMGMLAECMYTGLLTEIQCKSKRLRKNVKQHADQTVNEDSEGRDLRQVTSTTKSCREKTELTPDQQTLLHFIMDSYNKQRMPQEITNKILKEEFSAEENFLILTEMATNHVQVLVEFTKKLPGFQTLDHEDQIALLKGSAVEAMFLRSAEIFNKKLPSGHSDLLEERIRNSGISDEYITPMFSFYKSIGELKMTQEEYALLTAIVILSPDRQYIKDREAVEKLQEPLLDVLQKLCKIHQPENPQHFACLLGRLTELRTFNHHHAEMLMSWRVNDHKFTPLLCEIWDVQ
How it was run: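 Cells carrying a UAS-driven beta-lactamase reporter (GeneBLAzer FXR-UAS-bla HEK 293T) were plated and rested 5 h at 37 °C. Compounds in DMSO were added alongside chenodeoxycholic acid agonist at 50 uM final and left 16 h at 37 °C before FRET substrate readout.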

[18] = biological target: Androgen receptor (Homo sapiens) (UniProt P10275); assay: qHTS assay to identify small molecule agonists of the androgen receptor (AR) signaling pathway (AID 743036; active = well fitted activation curve with a large enough effect in the signal ratio in the repeat runs, with a control signal flat, not every such curve was filed as active; inconclusive = weak or mixed curves, or effect the other way; inactive = no such curve, though single readings can be large or run the other way; the % refers to the signal ratio; note: potency is the fitted concentration of half-maximal effect); conditions: HEK293 AR-UAS-bla GripTite, beta-lactamase FRET ratio, 16 h; activation: at 62.4 µM (top of the series) unless noted
Chain of UniProt P10275 (P10275 whole entry, looked up): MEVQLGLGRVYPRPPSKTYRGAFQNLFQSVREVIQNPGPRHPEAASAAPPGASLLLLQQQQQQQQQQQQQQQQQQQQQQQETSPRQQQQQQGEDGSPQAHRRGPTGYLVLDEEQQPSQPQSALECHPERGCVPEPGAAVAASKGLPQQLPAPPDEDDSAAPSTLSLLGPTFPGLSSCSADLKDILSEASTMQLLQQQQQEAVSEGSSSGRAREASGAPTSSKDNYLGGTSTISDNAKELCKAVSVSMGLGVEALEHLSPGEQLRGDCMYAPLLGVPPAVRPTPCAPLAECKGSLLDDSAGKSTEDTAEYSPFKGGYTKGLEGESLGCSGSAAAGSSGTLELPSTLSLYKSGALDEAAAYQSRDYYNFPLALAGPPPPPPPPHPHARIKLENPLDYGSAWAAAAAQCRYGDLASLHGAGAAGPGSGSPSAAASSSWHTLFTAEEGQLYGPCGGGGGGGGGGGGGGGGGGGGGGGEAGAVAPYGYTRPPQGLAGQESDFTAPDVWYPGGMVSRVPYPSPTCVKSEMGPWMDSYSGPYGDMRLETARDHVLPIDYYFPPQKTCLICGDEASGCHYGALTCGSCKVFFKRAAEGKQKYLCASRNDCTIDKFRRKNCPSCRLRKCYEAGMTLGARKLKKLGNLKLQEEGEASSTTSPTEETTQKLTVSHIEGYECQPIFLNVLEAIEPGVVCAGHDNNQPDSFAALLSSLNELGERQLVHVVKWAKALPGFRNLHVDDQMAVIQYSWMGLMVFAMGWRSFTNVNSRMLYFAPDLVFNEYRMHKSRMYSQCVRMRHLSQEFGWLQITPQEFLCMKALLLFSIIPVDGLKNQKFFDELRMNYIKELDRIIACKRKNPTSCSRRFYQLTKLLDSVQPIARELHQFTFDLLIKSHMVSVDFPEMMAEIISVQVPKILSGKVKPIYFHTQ
How it was run: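 In this Tox21 qHTS, 2,000 HEK293 AR-bla cells per well were incubated with compounds for 16 h at 37C and 5% CO2. Fluorescence intensity was recorded 2 h after adding LiveBLAzer B/G FRET substrate at room temperature.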

[19] = qHTS assay to identify small molecule agonists of the androgen receptor (AR) signaling pathway in the presence of an antagonist - cell viability counter screen (AID 1259379); note: nearly all actives have a fitted effect of over 25% in size; note: potency is the fitted concentration of half-maximal effect;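 for activity change, negative = cytotoxicity: MDA-kb2 human breast cancer cells carrying an MMTV luciferase reporter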
How it was run: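 Cytotoxicity is assessed by CellTiter-Fluor in MDA-kb2 cells carrying an MMTV-driven luciferase reporter. Cells receive 3.0uM nilutamide plus compounds at 15 concentrations and incubate 16 hr at 37C without CO2 before fluorescence reading.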

Aromatase (Homo sapiens) = Aromatase (Homo sapiens) (UniProt P11511); assay: qHTS assay to identify aromatase inhibitors (AID 743083); note: nearly all actives have a fitted effect of over 55% in size
Chain of UniProt P11511 (P11511 whole entry, looked up): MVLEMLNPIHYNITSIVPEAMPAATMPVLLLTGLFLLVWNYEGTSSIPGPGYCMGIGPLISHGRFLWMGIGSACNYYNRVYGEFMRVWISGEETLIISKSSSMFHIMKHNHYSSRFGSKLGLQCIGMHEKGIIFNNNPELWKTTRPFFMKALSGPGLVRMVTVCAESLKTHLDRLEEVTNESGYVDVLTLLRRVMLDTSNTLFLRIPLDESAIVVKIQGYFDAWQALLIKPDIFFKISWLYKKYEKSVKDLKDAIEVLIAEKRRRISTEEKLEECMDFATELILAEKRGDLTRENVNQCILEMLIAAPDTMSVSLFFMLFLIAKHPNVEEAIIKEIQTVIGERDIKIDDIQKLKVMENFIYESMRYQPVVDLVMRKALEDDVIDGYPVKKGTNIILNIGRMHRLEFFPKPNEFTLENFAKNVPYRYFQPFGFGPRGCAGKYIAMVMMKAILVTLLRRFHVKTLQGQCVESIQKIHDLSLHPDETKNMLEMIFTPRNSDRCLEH
Tags give direction and shape of the fitted curve or compound fluorescence and quenching.

SMILES: CCCCSP(=O)(SCCCC)SCCCC
- Potency [1]: inactive
- Potency [2]: inconclusive: 21.9 µM [cytotoxic, partial curve, poor fit]
- Potency [3]: inconclusive: 6.02 µM [cytotoxic, partial curve]

SMILES: [Cl-].[Cl-].[Cl-].[Fe+3]
- Potency [4]: inactive

SMILES: CC(C)(C)C(=O)Cl
- Potency [5]: inactive

SMILES: N=C(N)[Se]
- Potency [5]: inactive

SMILES: Clc1ccccc1
- Potency [3]: inactive

SMILES: O=C1CN=C(c2ccccc2)c2cc([N+](=O)[O-])ccc2N1
- Potency [6]: inactive
- Potency [7]: inactive

SMILES: CCCC(C)C1(CC)C(=O)N=C(S)NC1=O (stereo unspecified)
- Potency [3]: inactive

SMILES: CCCCCCCCCCCCN(C)C
- Potency [8]: inactive

SMILES: ClCCCN1CCN(c2cccc(Cl)c2)CC1
- Potency [2]: inactive
- Potency [9]: inconclusive: 13.3 µM [rising, single point]

SMILES: CC(C)(Cl)Cl
- Potency [10]: inactive
- activation [6]: inconclusive: 0.544% [phenotype inactive] [at 95.2 µM]

SMILES: CCOP(=S)(OCC)Oc1ccc([N+](=O)[O-])cc1
- Potency [11]: inactive
- Potency [12]: inconclusive: 10.7 µM [activator, single point]

SMILES: Clc1cccc(Cl)c1Cl
- Potency [6]: inactive
- Potency [2]: inconclusive: 1.08 µM [rising, single point]
- Potency [9]: inactive

SMILES: O=C(O)COc1ccccc1
- Potency [13]: inconclusive: 20.1 µM [rising, partial curve, poor fit]

SMILES: CC1(C)C(=O)NC(=O)NC1=O
- Potency [11]: inconclusive: 54.9 µM [activator, single point]

SMILES: O=c1[nH]c(=O)n(Cl)c(=O)n1Cl
- Potency [9]: inactive

SMILES: O=C(O)C(F)(F)C(F)(F)C(F)(F)C(F)(F)C(F)(F)C(F)(F)C(F)(F)C(F)(F)F
- Potency [1]: active: 61.1 µM
- Potency [14]: inconclusive: 0.686 µM [inhibitor, partial curve, poor fit]
- Potency [15]: inconclusive: 21.9 µM [falling, single point]
- Potency [3]: inconclusive: 21.9 µM [cytotoxic, single point]
- Potency [8]: inconclusive: 24.3 µM [cytotoxic, partial curve]

SMILES: CC(C)N(Cc1ccccc1)C(=O)C(C)(C)C
- Potency [16]: inactive
- activity change, negative = inhibition [17]: inconclusive: -1.15%

SMILES: CCCN1CCC[C@@H]2Cc3[nH]ncc3C[C@H]21
- Potency [4]: inactive

SMILES: O=c1[nH]c(Cl)c(Cl)cc1Cl
- Potency [18]: inconclusive: 43.6 µM [rising, partial curve]
- Potency [8]: inconclusive: 54.5 µM [cytotoxic, partial curve]
- Potency [12]: inconclusive: 49 µM [rising, partial curve, poor fit]

SMILES: C=CCc1ccccc1O
- Potency [2]: inactive
- Potency [12]: inactive

SMILES: C1CCC(C2CCCCC2)CC1
- Potency [10]: inconclusive: 54.5 µM [cytotoxic, partial curve, poor fit]
- Potency [1]: inconclusive: 24.3 µM [cytotoxic, partial curve, poor fit]
- Potency [17]: inactive
- Potency [8]: inconclusive: 9.69 µM [cytotoxic, full curve]

SMILES: ClC(Cl)(Cl)Br
- Potency [13]: inconclusive: 4.13 µM [cytotoxic, single point]

SMILES: Nc1c(Br)cc([N+](=O)[O-])cc1[N+](=O)[O-]
- Potency [18]: inconclusive: 12.4 µM [activator, single point]
- Potency [10]: inconclusive: 55.1 µM [cytotoxic, partial curve]
- Potency [19]: inconclusive: 34.8 µM [cytotoxic, partial curve]

SMILES: [N-]=[N+]=CC(=O)OC[C@H](N)C(=O)O
- Potency [9]: inactive
- Potency [15]: inactive
- Potency [11]: inconclusive: 34.7 µM [activator, partial curve, poor fit]

SMILES: CC(Oc1cccc(Cl)c1)C(=O)O (stereo unspecified)
- Potency [11]: inactive
- Potency [19]: inactive

SMILES: OCCCl
- Potency [19]: inactive

SMILES: [Cl-].[Cl-].[Cl-].[Yb+3]
- Potency [3]: inactive

SMILES: COc1ccc(C(=O)c2c(C)n(CCN3CCOCC3)c3ccccc23)cc1
- Potency [5]: inactive
- Potency [15]: inactive

SMILES: CC(C)=CCN1CC[C@@]2(C)c3cc(O)ccc3C[C@@H]1[C@@H]2C
- Potency [19]: inconclusive: 60.2 µM [cytotoxic, partial curve]

SMILES: O=C(CCCCl)c1ccc(F)cc1
- Potency [1]: inactive

SMILES: C=CC1CC=CCC1 (stereo unspecified)
- Potency (Aromatase (Homo sapiens)): inactive

SMILES: C=CCSSCC=C
- Potency [16]: inactive
- Potency [19]: inactive

SMILES: c1ccc2c(c1)oc1ccccc12
- Potency [11]: inconclusive: 43.6 µM [activator, single point]

SMILES: O=C(Nc1ccccc1)N(Cc1ccc(Cl)cc1)C1CCCC1
- Potency [1]: inconclusive: 54.5 µM [cytotoxic, partial curve, poor fit]
- Potency [16]: inactive
- Potency [17]: active: 54.9 µM
- Potency [14]: inconclusive: 61.1 µM [inhibitor, single point]
- Potency [9]: inconclusive: 68.6 µM [cytotoxic, single point]
- Potency [15]: inconclusive: 49 µM [falling, partial curve, poor fit]
- Potency [13]: inactive

SMILES: CCOP(=S)(OCC)Oc1cnc2ccccc2n1
- activity change, negative = inhibition [17]: inconclusive: -23.7%
- Potency [3]: inconclusive: 24.5 µM [cytotoxic, partial curve]
- Potency [8]: inactive
- Potency [13]: inactive
- Potency [12]: inactive

SMILES: c1ccc2nc(N3CCNCC3)ccc2c1
- Potency [1]: inconclusive: 8.41 µM [cytotoxic, partial curve, poor fit]
- Potency [2]: inactive

SMILES: CNC(=O)N(C)c1nc2ccccc2s1
- Potency [18]: inconclusive: 2.19 µM [rising, full curve, poor fit]
- Potency (Aromatase (Homo sapiens)): inactive

SMILES: CNC(=O)Oc1c(C(C)(C)C)cc(C)cc1C(C)(C)C
- Potency [4]: inactive
